# Measurements published in the supplement of paper PMC3334620.
# Over roughly 33,000 sequences, “E-score (-0.5 to 0.5)” has its median near -0.01; the highest 2% begin near 0.26. This is one part of the list.
# Molecular target: Ste12 (UniProt P13574)
# Assay: PBM E-score (8-mer binding enrichment) (E-score (-0.5 to 0.5)); higher = stronger / more preferred TF binding; most listed sequences are background and not binding sites
# Conditions: protein concentration: 200 nM; construct: GST-DNA-binding domain
# Procedure: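 Universal 'all 10-mer' protein binding microarrays (Agilent AMADID 015681) probed with GST-tagged S. cerevisiae TFs (full-length or DBD) made by in vitro transcription/translation (PURExpress), about 100-200 nM. Bound TF was detected with fluorescent anti-GST. Each ungapped 8-mer (which stands for itself and its reverse complement) is scored by the PBM enrichment score (E-score), a modified Wilcoxon-Mann-Whitney statistic from -0.5 to +0.5, computed with the Universal PBM Analysis Suite. Scale: above 0.35 generally sequence-specific binding.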
row,Sequence,PBM E-score
1,GGACGACC,-0.236
2,CAGCAACG,0.0828
3,AAACGTTC,0.211
4,ATGGCTCC,-0.0743
5,CCCGGTCG,-0.0926
6,CCGCGACC,-0.0436
7,GAGGCTCC,0.0321
8,TAAAGTTA,0.168
9,AAATTGCC,0.0442
10,ACCGTTGC,-0.0885
11,TACGGTCA,-0.0675
12,AGGTTGCG,-0.0546
13,CGAGCTAC,-0.0785
14,CATTAATC,0.164
15,GGAGGTCA,-0.171
16,AGGACCAT,-0.258
17,GATCATAA,0.0311
18,AAACATAC,0.241
19,AGTCCTAC,-0.239
20,ATGCGATC,-0.0459
21,CCTACGGC,-0.216
22,CACGACTG,-0.0339
23,TCGCGGCA,-0.122
24,ACCATACT,0.0935
25,CGACTCCC,-0.0558

row,Sequence,PBM E-score
1,AATTATAA,0.144
2,TACCTTGA,0.0945
3,ATACCGAT,-0.123
4,TAAGAAGA,0.0379
5,AAAGATGC,0.105
6,ATGAAAGG,0.0401
7,GCGAACCA,-0.0603
8,CCACGCAG,-0.0584
9,GGAGCCTA,-0.0584
10,CATAAGAA,0.22
11,GAGGCGCA,-0.0727
12,AAGTGCGC,0.0467
13,GTATAAAC,0.184
14,GAAGACCC,-0.163
15,TAAATGGA,0.0785
16,CCCAAATA,0.106
17,CTAATAGC,-0.27
18,AAATAGGC,0.104
19,ATGTCAAG,0.0511
20,AGTATGGG,-0.0937
21,ATAAGAGA,0.212
22,GTGAAATA,0.169
23,AACTTCAA,0.0648
24,ATAAAACC,0.294
25,CTACGCGA,-0.165

row,Sequence,PBM E-score
1,ATACATAG,0.0394
2,CATGACAG,0.00241
3,AAGCGAGC,-0.0151
4,TGGACCCA,-0.115
5,AACCAATC,0.259
6,GCAAGCGC,-0.0054
7,AAATGAGT,0.0197
8,ACGAAAGT,0.143
9,GGACACCC,-0.24
10,GGAAAGTA,0.146
11,AACTGTGA,0.135
12,CCCGTCAG,-0.0481
13,ACCCCTCA,0.0822
14,TGACAAAA,0.192
15,TGCGCCCA,-0.0421
16,TCACGGGA,-0.00635
17,AGATACAT,0.00257
18,CATCGCAA,-0.117
19,GGACAACA,-0.152
20,ACCTTCGA,-0.0218
21,ACACGACT,-0.00217
22,GAACCTGA,0.176
23,CAGCTTAA,-0.148
24,CCAAATTC,0.0956
25,ATTGTAGG,0.166

row,Sequence,PBM E-score
1,CCCTGGAG,-0.00232
2,AGGGGACA,-0.0929
3,CTATATTA,0.159
4,ATGACCCA,-0.181
5,CCCATAGC,-0.0521
6,CCTACCTC,0.0745
7,CTACTGAA,0.125
8,TACTTCAA,0.0645
9,CGGGCAAG,-0.0454
10,GTCGGGAA,0.126
11,CCCCCGTA,-0.262
12,GGTGGCAA,-0.151
13,AGAGTTGG,0.0179
14,CAACGTAA,0.0359
15,ATAATTGC,0.112
16,CGATAAGA,-0.083
17,CGTCTGAG,-0.11
18,CAAGGTAC,-0.00631
19,CATGTCTC,0.0391
20,CGTTCATC,0.0551
21,ATTACAGA,0.238
22,AAGAAGTG,0.166
23,ATACGTAC,-0.0302
24,GGGCGTAA,-0.0124
25,CTGGCCTC,-0.0475

row,Sequence,PBM E-score
1,CCTCTAAG,-0.0235
2,CCTGAACA,-0.0688
3,GAGCCCAC,-0.0321
4,ACGGTGGA,-0.127
5,CCTAAGTC,-0.0648
6,AGTGAAAT,0.0994
7,GACTTCTA,-0.0275
8,AGGCAGAC,-0.104
9,ACTCGACT,0.0162
10,ACTATAGG,-0.174
11,CGGGGGAC,-0.133
12,CAAAGTAG,0.0544
13,AATCTCCA,-0.184
14,CATTGGAA,0.062
15,ACCATCAG,-0.0967
16,ACTTCACC,-0.0192
17,AGCTTATA,-0.162
18,CCCTGAGC,0.0456
19,CCATATTA,0.198
20,TAGTGTAA,0.183
21,TATGCCCA,-0.0781
22,AAATGCAC,-0.00999
23,ATCAAGTG,-0.0201
24,GAGATAGA,-0.0729
25,TCCATGGA,-0.0177

row,Sequence,PBM E-score
1,GGCCTCTA,-0.338
2,ACCTGCTG,0.103
3,AAGGAAGA,-0.0303
4,AAACCCGA,0.336
5,AGGCATGC,-0.0768
6,CGCGAGAC,0.0627
7,CCCATGTA,-0.0798
8,AAGTGTAC,-0.152
9,GGTTGAAA,0.292
10,GTGATTGA,-0.00894
11,CGCAAACC,0.0209
12,AGGAGTTC,-0.22
13,AACTTCAG,-0.0235
14,GCTGCATA,-0.114
15,GATCATGA,0.152
16,CTCATCAC,0.0646
17,TGGCTACA,0.0979
18,CAAACAAA,0.149
19,AAGGGAGA,-0.187
20,CACCTTGC,-0.0458
21,AGCGTCGA,0.0364
22,CAAACAGC,0.123
23,GGTTGGAC,-0.193
24,CGACGGTC,-0.0211
25,AAGTGCTA,-0.166

row,Sequence,PBM E-score
1,AGCTTTCA,-0.0262
2,ACCCCGAT,0.107
3,AATGGCCA,-0.117
4,ACTCCTAA,-0.0995
5,ACTGCGTA,-0.302
6,ATAACATA,0.175
7,CGCCCGAG,-0.0373
8,CTGGGTAA,0.0362
9,TCCACTAA,0.0618
10,AAGGGCCA,-0.0964
11,CGCGCAAA,0.225
12,AACACAAT,0.1
13,ATTGTACG,-0.213
14,GTCCAGTA,-0.0658
15,GAAACTAA,0.182
16,GCTATGAA,0.033
17,CTGCCCCA,-0.0138
18,ATCGGGTG,0.123
19,ATACACGC,-0.0811
20,AATCCGCA,0.166
21,AAGGTATC,-0.0647
22,CTATGGTC,-0.0835
23,CTGGCGTA,-0.108
24,ACGCTTTC,0.0906
25,CTGGCATC,-0.283

row,Sequence,PBM E-score
1,AGGGCCTA,-0.151
2,AATGTGCT,-0.0631
3,TCCGGTCA,-0.256
4,AAGAAAAG,0.302
5,TCGTACAA,-0.0975
6,CCAAGCCA,-0.164
7,AATAACAA,0.0464
8,GAAGGCCA,-0.00112
9,CACTACTG,-0.11
10,ACAAGCCG,-0.1
11,GAACACGA,0.0114
12,GGTTCAAC,-0.0421
13,AAGATAGT,0.0884
14,TCGACACA,0.146
15,ATAGAGTA,0.0755
16,GGTGCGAA,0.2
17,ACCATTCA,0.0908
18,ACAGCCGC,0.0234
19,CAACGCGG,-0.0344
20,ATTGACCG,0.0853
21,CCCAGATA,-0.0876
22,ATCTTATA,0.0647
23,CCAGCTCA,-0.194
24,ACTTTGTC,0.0571
25,CACTACCG,-0.167

row,Sequence,PBM E-score
1,CCGGCTGA,0.0715
2,GGGGCGTA,0.282
3,CGGTTTAG,-0.00848
4,AGCAGAAT,0.148
5,GGGTGACA,-0.149
6,AGTCGGAA,0.106
7,TCCAGCAA,-0.145
8,TAAACACA,0.175
9,ATGTCAAC,-0.0625
10,AGGATCCG,-0.23
11,ACAAAGCC,0.051
12,AGGTTCGA,0.0869
13,AATGATTG,0.182
14,AGATCGGG,-0.0473
15,GCGTCGGA,0.203
16,ATAAAAGA,0.0538
17,GCTCTAAA,-7e-05
18,CCTATTCC,0.0843
19,CTACGATA,0.0831
